Values marked as one replicate rest on one cluster of the flow cell; about a third of the high ones do not repeat.
system: ATP; assay: switch fluorescence ratio, 500 uM ATP over buffer (Cy3 cluster intensity, sum of 5 cycles each) (fold (ratio)); higher = stronger signal-on switching upon ATP binding; sequences stand for … in TCGTCGGCAGCGTCAGATGTGTATAAGAGACAGTTTTTTTTTTTTTTTTTTTTTTTTT…TC; details: aptamer strand: ATP DNA aptamer (quencher-CACCTGGGGGAGTATTGCGGAGGAAGG + anchor), 100 nM annealed; ATP concentration: 500 uM; one replicate
Summary of the method: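 Per cluster, summed Cy3 intensity from the target cycles was divided by that from the buffer cycles to give the fluorescence ratio, then averaged per switch-domain sequence. Clusters outside 100-1000 RFU were excluded. The Cy3-labelled switching-strand clusters, on a modified Illumina MiSeq flow-cell, were annealed to 100 nM quencher-labelled ATP aptamer and imaged in selection buffer, then after 15 min with 500 uM ATP at 22 °C, for five cycles with NaOH stripping and re-annealing between them.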
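Further: ATP exposure 15 min at 22 °C before imaging.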

Sequence	switch fluorescence ratio
ACAGTTAATT	1
ACAGTTCGAG	0.987
ACAGTTGCGT	1.04
ACAGTTTACC	1.15
ACATACCGGT	1.26
ACATAGCGTG	1.03
ACATAGTGAC	1.04
ACATATGGGA	1.21
ACATCATCC	1
ACATCCGCGG	1.36
ACATCGGCCA	1.03
ACATCGGCTC	1.03
ACATCGTGCC	0.987
ACATCTGGAA	1.06
ACATGACTTT	1.08
ACATGATGCT	0.985
ACATGCAGAG	1.04
ACATGCGAGG	0.997
ACATGCTGC	0.975
ACATGGATA	0.989
ACATGGATTA	1.02
ACATGGTTCC	1.02
ACATGTGCAT	0.99
ACATGTGCGG	1.04
ACATGTGCTC	0.98

Sequence	switch fluorescence ratio
ACATTAAGTC	1.06
ACATTACTTT	1.21
ACATTATCTT	1.1
ACATTCCGAA	1.2
ACATTGAGTC	1.07
ACATTGTAG	1.01
ACATTTCCAG	1.05
ACATTTCTGT	0.998
ACCAACAGCC	1.11
ACCAAGGCTC	1.15
ACCAAGTCAG	1.07
ACCAATAGGT	1.03
ACCACCCCGG	1.05
ACCACCGGGG	1.06
ACCACCTTCT	1.5
ACCACTATTA	1.02
ACCAGAACAG	1
ACCAGCCGGT	0.959
ACCAGCGTGA	1.11
ACCAGGCTGG	1.02
ACCATAATAG	1.04
ACCATGAACG	1.09
ACCATGAGGA	1
ACCATGTGCA	1.06
ACCATTACTT	1.22

Sequence	switch fluorescence ratio
ACCATTTTCC	1.24
ACCCAATTAA	1.03
ACCCACACAG	1.37
ACCCATAGAA	1.01
ACCCCATAGT	1.09
ACCCGAGATC	0.969
ACCCGCTGTA	1.22
ACCCGGTGCC	1.42
ACCCTCGACA	1.11
ACCCTGCTCT	1.01
ACCCTGGCGT	1.01
ACCCTTTCCG	1.4
ACCGAAGGCG	1.01
ACCGAGAGCC	1.01
ACCGAGGGCC	1.03
ACCGATAGCA	1.19
ACCGCCGATG	1.22
ACCGCGGTGG	1.04
ACCGCTGTGC	2.99
ACCGCTTGTG	1.06
ACCGGATGAG	0.96
ACCGGCCAG	1.05
ACCGGCCGGA	1.04
ACCGGGGTCA	1
ACCGGTTTCA	0.954

Sequence	switch fluorescence ratio
ACCGTAACAT	1.1
ACCGTCGCGT	1.08
ACCGTGTTC	0.991
ACCGTTTTCT	1.04
ACCTAACGCA	1.67
ACCTAACGTG	1.36
ACCTACCTGT	1.21
ACCTACTGGT	1.05
ACCTAGCTGG	0.96
ACCTATCGCT	1.15
ACCTATCGTT	1.03
ACCTATGTCC	1.02
ACCTCAATGG	1
ACCTCATATG	1.01
ACCTCCCCT	1.67
ACCTCCCTGA	1.21
ACCTCGGCTA	2.37
ACCTCTTATG	1.04
ACCTGAGGGC	1.02
ACCTGCCTGG	1.03
ACCTGGGAG	0.98
ACCTGTAAGT	1.08
ACCTTAACAG	1.12
ACCTTAACAT	1.05
ACCTTAGGTT	1.03

Sequence	switch fluorescence ratio
ACCTTATAAC	1.02
ACCTTATGTT	1.03
ACCTTGCGTT	0.993
ACCTTTCAAT	1.06
ACCTTTTATA	1
ACCTTTTGGA	0.999
ACGAAAAGCT	1.08
ACGAAAATTG	1.29
ACGAAAGTAC	1.26
ACGAACATAG	1.27
ACGAAGCCGG	1.1
ACGAATCGGT	0.989
ACGAATTCCG	1.01
ACGAATTTC	1.04
ACGACGTACC	1.95
ACGACTGCAC	3.87
ACGACTGGTT	1.04
ACGAGAAGCT	1.02
ACGAGAATGT	1.01
ACGAGACATC	1.07
ACGAGAGGGA	1.08
ACGAGATGAG	1.04
ACGAGCCTGG	1.7
ACGAGCGCCT	1.04
ACGAGCTACG	1.11

Sequence	switch fluorescence ratio
ACGATAAGAG	1.12
ACGATACGGT	1.42
ACGATACTT	1.53
ACGATACTTC	1.44
ACGATAGAGT	1.04
ACGATAGTAT	1.01
ACGATGTGAC	1.11
ACGATTCTTG	1.02
ACGATTGCG	1
ACGATTTGT	0.997
ACGCAATGGC	2.51
ACGCATAACA	1.51
ACGCATCGGA	1.01
ACGCCTCGGC	1.03
ACGCGAATGG	1.13
ACGCGATGA	0.984
ACGCGCGGCG	0.982
ACGCGGAATG	0.962
ACGCGGCTAA	1.04
ACGCGTCTTC	1.06
ACGCGTGGCT	1.05
ACGCGTGTGT	0.992
ACGCTGAGCC	1.05
ACGCTTAATA	1.12
ACGCTTTAAT	1.05

Sequence	switch fluorescence ratio
ACGCTTTACT	2.02
ACGGAAATAC	3.04
ACGGAAGGTA	1.06
ACGGAATGAA	1.1
ACGGACATTG	1.05
ACGGACATTT	1.24
ACGGAGATTG	1.03
ACGGAGGGGA	1.01
ACGGAGTAGC	1.06
ACGGATACGT	1.02
ACGGATCCAT	0.991
ACGGATGGCC	0.955
ACGGCAAATG	1.07
ACGGCGCATT	1.23
ACGGCGCGAT	1.34
ACGGCTGCAA	1.01
ACGGGAACAT	1.06
ACGGGAAGAG	1
ACGGGAAGGT	1.03
ACGGGACGCG	1.08
ACGGGAGGAC	1.02
ACGGGATCAG	1.01
ACGGGATCCG	1.06
ACGGGATCGA	1.01
ACGGGCAAAA	0.905

Sequence	switch fluorescence ratio
ACGGGCTGCC	1.03
ACGGGGCGAT	1.43
ACGGGGCGTG	0.999
ACGGGGGCTA	1.02
ACGGGGTATG	0.996
ACGGGTGCAT	1.03
ACGGGTTATT	1.04
ACGGTACCAG	1.37
ACGGTCCTGT	1.01
ACGGTCTAAG	1
ACGGTCTAGG	1
ACGTAACTTA	1.13
ACGTAATATT	1.25
ACGTAGCAAG	3.51
ACGTATAATT	1.07
ACGTATCAGC	1.11
ACGTATCCAA	1.19
ACGTATTACT	1.36
ACGTATTTAT	1.14
ACGTCCAAGT	0.989
ACGTCCCATC	1.11
ACGTCTCAAC	1.11
ACGTCTTACG	0.962
ACGTCTTATC	1.05
ACGTCTTCTA	1.05

Source: the supplement of paper PMC10126150
